# Reference: the supplement of paper PMC3334620
# Whole data set: some 33,000 sequences, median “E-score (-0.5 to 0.5)” near -0.011, cut for the highest 2% near 0.28. Some of the results follow.
# Target: T1, Gcr1 (UniProt P07261)
# T1 sequence: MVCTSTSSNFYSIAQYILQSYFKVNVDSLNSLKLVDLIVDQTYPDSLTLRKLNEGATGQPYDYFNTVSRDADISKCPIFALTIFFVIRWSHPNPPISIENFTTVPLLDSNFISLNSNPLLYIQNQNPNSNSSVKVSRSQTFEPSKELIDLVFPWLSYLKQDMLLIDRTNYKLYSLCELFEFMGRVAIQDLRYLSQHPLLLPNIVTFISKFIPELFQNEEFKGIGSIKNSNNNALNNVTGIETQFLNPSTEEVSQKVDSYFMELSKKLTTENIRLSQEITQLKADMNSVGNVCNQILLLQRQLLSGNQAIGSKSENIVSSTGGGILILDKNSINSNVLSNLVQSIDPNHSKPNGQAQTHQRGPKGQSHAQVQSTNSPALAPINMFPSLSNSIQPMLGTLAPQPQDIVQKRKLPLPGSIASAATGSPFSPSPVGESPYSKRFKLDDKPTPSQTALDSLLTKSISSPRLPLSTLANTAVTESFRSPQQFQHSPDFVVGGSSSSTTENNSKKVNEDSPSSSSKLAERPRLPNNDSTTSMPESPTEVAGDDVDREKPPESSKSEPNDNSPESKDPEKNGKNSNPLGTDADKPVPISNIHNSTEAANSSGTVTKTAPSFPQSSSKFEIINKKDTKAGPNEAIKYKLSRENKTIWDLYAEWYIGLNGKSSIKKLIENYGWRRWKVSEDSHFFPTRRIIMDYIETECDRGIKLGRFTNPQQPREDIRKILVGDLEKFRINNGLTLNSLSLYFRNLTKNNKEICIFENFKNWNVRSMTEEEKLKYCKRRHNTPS
# Experiment: PBM E-score (8-mer binding enrichment) (E-score (-0.5 to 0.5)); higher = stronger / more preferred TF binding; most listed sequences are background and not binding sites
# Conditions: protein concentration: 100 nM; construct: GST-full length
# Summary of the method: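 The E-score, a modified Wilcoxon-Mann-Whitney statistic, was computed by the Universal PBM Analysis Suite for every ungapped eight-base word pooled with its reverse complement. Scans behind it were normalised with masliner after bound GST-tagged yeast transcription factors were detected with fluorescent anti-GST. The proteins, at about 100-200 nM, had been applied to universal all-10-mer Agilent arrays made double-stranded by primer extension.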
row,Sequence,PBM E-score
1,CTTATGGA,-0.0512
2,AACGTGAA,-0.0305
3,GGTCATAC,-0.197
4,GCCCCTCA,-0.094
5,CGACACGC,-0.0997
6,AATAGCTC,-0.176
7,ATGATGGA,0.0288
8,ATCGATCG,-0.165
9,GATCGTGA,-0.151
10,CCACGTCA,-0.0982
11,AAACGCCT,-0.198
12,CAGATACG,0.103
13,AGATATGA,0.0266
14,GGACATCA,-0.0546
15,AAAAAGTT,0.0512
16,AGATGTTA,-0.208
17,TGAATTCA,0.00695
18,CGTCTGCA,0.0942
19,GAAATGTA,0.175
20,CGAGTGAA,-0.202
21,CGCTCAGC,-0.0214
22,CAGAATAC,0.152
23,TGACCGCA,-0.0508
24,AAATCTCA,0.0941

row,Sequence,PBM E-score
1,GACTTCCA,0.319
2,CATCTCAA,0.0337
3,GTCTGAGA,-0.0892
4,ATCTAGAC,0.0936
5,CTCGAAGA,-0.136
6,TAAATGTA,-0.0458
7,GAGGGTTA,-0.17
8,AGGGTCAC,-0.215
9,CCAATCCG,0.144
10,AGCAAATC,-0.0226
11,GGAGAGGA,0.0158
12,AATGTAAC,-0.0323
13,CCCCGCAC,0.0651
14,CCATGGGC,0.0107
15,CATTCTCG,-0.0113
16,ACGTCATC,0.0184
17,GAGTCAAA,-0.086
18,AGCTAAGA,0.162
19,ACTGTTGC,-0.0291
20,GCCGACCC,-0.157
21,GCCGTGTA,-0.0249
22,CGCCCATA,0.0786
23,TAGTCAGA,0.0371
24,CAACACTC,-0.03

row,Sequence,PBM E-score
1,GGTGTGAC,-0.205
2,ATTGATAC,0.0697
3,CACATAAA,0.106
4,ACGGCACG,-0.0602
5,CGTATGTA,-0.07
6,TACTCACA,0.0331
7,AATTGCAG,0.0997
8,GAGGGTCC,-0.0308
9,AACTCATG,-0.0407
10,CTGAACTA,0.0431
11,CCTTGACC,-0.145
12,GGCGAGAA,-0.106
13,AGTCCGTG,-0.0968
14,TTGCCCAA,-0.0789
15,GTCGAGAC,-0.0717
16,CGAGCGAA,-0.0543
17,CGTCGTAG,-0.149
18,CCGTGGGA,0.117
19,CAGAGCCC,-0.0137
20,CCTACCTA,-0.0173
21,AAAGCCGA,-0.179
22,GGCGGTCA,-0.119
23,TAGTTAAA,0.00532
24,ACCCAGCC,-0.137

row,Sequence,PBM E-score
1,CATGATCC,0.0249
2,GCGCCGAA,0.108
3,AGTCAGGC,0.0988
4,GAATCATC,-0.0777
5,CATCTGAA,0.0901
6,GCTCGTAC,-0.129
7,GGCGGTTA,-0.0399
8,ACCGATTC,0.0405
9,GCAAGAGA,0.0293
10,TCGAACCA,0.0127
11,CGTCGTCA,-0.0334
12,ATCCGAAT,0.187
13,CTGTGATA,0.076
14,AGCAGGAA,-0.0368
15,CCGGAACG,-0.0389
16,AAGGATCT,0.0538
17,CGAAACTC,0.047
18,ATAGACTG,-0.111
19,ACGACCAG,-0.0461
20,TGTATTAA,0.187
21,CGATATTC,0.134
22,AATACATG,0.0783
